Paper PMC6325244
These are yes or no findings as the source states them, for the method shown. Binding seen in cells or lysates may run through a third protein. Some results given as binding are weak or reduced against the parent protein; the word gives no strength. For part of these data: Sequences can lack the tags named with a protein.

Sequences of proteins named here, by UniProt entry; tags and fusion partners are left off.
UniProt P06136: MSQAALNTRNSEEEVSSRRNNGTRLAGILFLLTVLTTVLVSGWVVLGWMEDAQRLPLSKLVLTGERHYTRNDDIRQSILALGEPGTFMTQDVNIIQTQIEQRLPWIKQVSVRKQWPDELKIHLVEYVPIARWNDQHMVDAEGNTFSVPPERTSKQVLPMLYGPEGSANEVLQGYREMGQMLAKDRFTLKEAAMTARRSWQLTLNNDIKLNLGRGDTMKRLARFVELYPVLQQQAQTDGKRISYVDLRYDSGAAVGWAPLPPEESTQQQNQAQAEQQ

T1: PBP1b (E. coli) (UniProt P02919)
T1 sequence (chain, fluorescent ampicillin label added after elution): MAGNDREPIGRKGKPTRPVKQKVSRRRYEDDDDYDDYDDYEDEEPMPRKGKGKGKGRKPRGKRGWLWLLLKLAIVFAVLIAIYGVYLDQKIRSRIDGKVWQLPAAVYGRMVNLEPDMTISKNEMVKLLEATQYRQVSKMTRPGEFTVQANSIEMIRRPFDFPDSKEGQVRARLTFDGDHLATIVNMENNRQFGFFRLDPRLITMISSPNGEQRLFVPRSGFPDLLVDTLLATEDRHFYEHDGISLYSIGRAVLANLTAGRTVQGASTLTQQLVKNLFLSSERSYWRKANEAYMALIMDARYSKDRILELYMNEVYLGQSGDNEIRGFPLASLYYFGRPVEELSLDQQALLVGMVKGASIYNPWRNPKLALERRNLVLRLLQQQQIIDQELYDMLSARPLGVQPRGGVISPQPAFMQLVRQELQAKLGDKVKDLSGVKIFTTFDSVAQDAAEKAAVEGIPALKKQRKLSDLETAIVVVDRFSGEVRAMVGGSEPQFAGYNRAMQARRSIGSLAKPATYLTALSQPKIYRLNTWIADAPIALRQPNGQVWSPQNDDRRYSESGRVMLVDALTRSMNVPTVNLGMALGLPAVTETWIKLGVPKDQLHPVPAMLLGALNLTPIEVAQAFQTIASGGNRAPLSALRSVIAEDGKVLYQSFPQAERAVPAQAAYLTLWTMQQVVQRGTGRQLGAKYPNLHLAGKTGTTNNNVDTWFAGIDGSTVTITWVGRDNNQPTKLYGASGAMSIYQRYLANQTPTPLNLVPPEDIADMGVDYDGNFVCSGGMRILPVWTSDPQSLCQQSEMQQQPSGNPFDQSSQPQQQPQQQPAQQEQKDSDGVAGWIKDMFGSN

T2: HisFtsW (E. coli) (UniProt P0ABG4)
T2 sequence: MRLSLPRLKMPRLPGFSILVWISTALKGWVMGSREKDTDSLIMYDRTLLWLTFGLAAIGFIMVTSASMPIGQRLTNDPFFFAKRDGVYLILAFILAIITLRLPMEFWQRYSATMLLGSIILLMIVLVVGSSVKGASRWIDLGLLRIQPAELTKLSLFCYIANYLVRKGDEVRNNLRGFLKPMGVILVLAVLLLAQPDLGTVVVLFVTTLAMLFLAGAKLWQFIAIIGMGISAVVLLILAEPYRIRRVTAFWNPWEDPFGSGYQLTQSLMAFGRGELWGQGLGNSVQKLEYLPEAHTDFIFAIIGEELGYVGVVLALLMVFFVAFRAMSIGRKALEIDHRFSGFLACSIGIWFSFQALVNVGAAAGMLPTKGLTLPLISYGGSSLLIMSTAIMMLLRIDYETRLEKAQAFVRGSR

T3: HisFtsBL (E. coli) (UniProt P0A6S5+P0AEN4)
T3 sequence 1: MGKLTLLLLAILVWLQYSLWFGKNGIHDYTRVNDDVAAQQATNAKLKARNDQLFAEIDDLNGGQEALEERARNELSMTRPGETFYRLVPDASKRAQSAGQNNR
T3 sequence 2: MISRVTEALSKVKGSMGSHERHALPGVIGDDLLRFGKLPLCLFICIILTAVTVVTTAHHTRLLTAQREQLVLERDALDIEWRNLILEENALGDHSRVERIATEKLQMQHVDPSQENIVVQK

T4: His-FtsB (E. coli) (UniProt P0A6S5)
T4 sequence: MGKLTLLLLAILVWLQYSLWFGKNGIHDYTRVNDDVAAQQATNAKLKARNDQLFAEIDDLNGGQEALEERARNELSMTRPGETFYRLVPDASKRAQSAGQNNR


Assays:
Experiment in all cases: pull-down; coexpression from compatible Duet vectors in E. coli, complexes extracted from membranes with detergent, affinity copurification on a HisTrap/Ni column with one His-tagged protein as bait; eluate labeled with fluorescent ampicillin when PBPs were present, SDS-PAGE, fluorescence imaging, Coomassie staining, immunoblot
PBP1b (E. coli) = molecular target: T1, PBP1b (E. coli)
HisFtsW (E. coli) = molecular target: T2, HisFtsW (E. coli)
HisFtsBL (E. coli) = molecular target: T3, HisFtsBL (E. coli)
[1] = molecular target: HisFtsBLQ complex (His-FtsB, FtsL, FtsQ) (E. coli) (UniProt P0A6S5+P0AEN4+P06136)
HisFtsQ (E. coli) = HisFtsQ (E. coli) (UniProt P06136)
His-FtsB (E. coli) = molecular target: T4, His-FtsB (E. coli)

Binder	binding (PBP1b (E. coli))	binding (HisFtsW (E. coli))	binding (HisFtsBL (E. coli))	binding [1]	binding (HisFtsQ (E. coli))	binding (His-FtsB (E. coli))
FtsN (protein, UniProt P29131 1-319) MAQRDYVRRSQPAPSRRKKSTSRKKQRNLPAVSPAMVAIAAAVLVTFIGGLYFITHHKKEESETLQSQKVTGNGLPPKPEERWRYIKELESRQPGVRAPTEPSAGGEVKTPEQLTPEQRQLLEQMQADMRQQPTQLVEVPWNEQTPEQRQQTLQRQRQAQQLAEQQRLAQQSRTTEQSWQQQTRTSQAAPVQAQPRQSKPASSQQPYQDLLQTPAHTTAQSKPQQAAPVARAADAPKPTAEKKDERRWMVQCGSFRGAEQAETVRAQLAFEGFDSKITTNNGWNRVVIGPVKGKENADSTLNRLKMAGHTNCIRLAAGG	binds	binds	–	–	–	–
PBP1b (enzyme, UniProt P02919 1-844, fluorescent ampicillin label added after elution) MAGNDREPIGRKGKPTRPVKQKVSRRRYEDDDDYDDYDDYEDEEPMPRKGKGKGKGRKPRGKRGWLWLLLKLAIVFAVLIAIYGVYLDQKIRSRIDGKVWQLPAAVYGRMVNLEPDMTISKNEMVKLLEATQYRQVSKMTRPGEFTVQANSIEMIRRPFDFPDSKEGQVRARLTFDGDHLATIVNMENNRQFGFFRLDPRLITMISSPNGEQRLFVPRSGFPDLLVDTLLATEDRHFYEHDGISLYSIGRAVLANLTAGRTVQGASTLTQQLVKNLFLSSERSYWRKANEAYMALIMDARYSKDRILELYMNEVYLGQSGDNEIRGFPLASLYYFGRPVEELSLDQQALLVGMVKGASIYNPWRNPKLALERRNLVLRLLQQQQIIDQELYDMLSARPLGVQPRGGVISPQPAFMQLVRQELQAKLGDKVKDLSGVKIFTTFDSVAQDAAEKAAVEGIPALKKQRKLSDLETAIVVVDRFSGEVRAMVGGSEPQFAGYNRAMQARRSIGSLAKPATYLTALSQPKIYRLNTWIADAPIALRQPNGQVWSPQNDDRRYSESGRVMLVDALTRSMNVPTVNLGMALGLPAVTETWIKLGVPKDQLHPVPAMLLGALNLTPIEVAQAFQTIASGGNRAPLSALRSVIAEDGKVLYQSFPQAERAVPAQAAYLTLWTMQQVVQRGTGRQLGAKYPNLHLAGKTGTTNNNVDTWFAGIDGSTVTITWVGRDNNQPTKLYGASGAMSIYQRYLANQTPTPLNLVPPEDIADMGVDYDGNFVCSGGMRILPVWTSDPQSLCQQSEMQQQPSGNPFDQSSQPQQQPQQQPAQQEQKDSDGVAGWIKDMFGSN	–	binds	binds	binds	binds	–
endogenous PBP3 (enzyme, UniProt P0AD68 1-577, fluorescent ampicillin label added after elution) MKAAAKTQKPKRQEEHANFISWRFALLCGCILLALAFLLGRVAWLQVISPDMLVKEGDMRSLRVQQVSTSRGMITDRSGRPLAVSVPVKAIWADPKEVHDAGGISVGDRWKALANALNIPLDQLSARINANPKGRFIYLARQVNPDMADYIKKLKLPGIHLREESRRYYPSGEVTAHLIGFTNVDSQGIEGVEKSFDKWLTGQPGERIVRKDRYGRVIEDISSTDSQAAHNLALSIDERLQALVYRELNNAVAFNKAESGSAVLVDVNTGEVLAMANSPSYNPNNLSGTPKEAMRNRTITDVFEPGSTVKPMVVMTALQRGVVRENSVLNTIPYRINGHEIKDVARYSELTLTGVLQKSSNVGVSKLALAMPSSALVDTYSRFGLGKATNLGLVGERSGLYPQKQRWSDIERATFSFGYGLMVTPLQLARVYATIGSYGIYRPLSITKVDPPVPGERVFPESIVRTVVHMMESVALPGGGGVKAAIKGYRIAIKTGTAKKVGPDGRYINKYIAYTAGVAPASQPRFALVVVINDPQAGKYYGGAVSAPVFGAIMGGVLRTMNIEPDALTTGDKNEFV	–	binds	no binding	binds	no binding	–
PBP3 (untagged, overexpressed) (enzyme, UniProt P0AD68 1-577, fluorescent ampicillin label added after elution) MKAAAKTQKPKRQEEHANFISWRFALLCGCILLALAFLLGRVAWLQVISPDMLVKEGDMRSLRVQQVSTSRGMITDRSGRPLAVSVPVKAIWADPKEVHDAGGISVGDRWKALANALNIPLDQLSARINANPKGRFIYLARQVNPDMADYIKKLKLPGIHLREESRRYYPSGEVTAHLIGFTNVDSQGIEGVEKSFDKWLTGQPGERIVRKDRYGRVIEDISSTDSQAAHNLALSIDERLQALVYRELNNAVAFNKAESGSAVLVDVNTGEVLAMANSPSYNPNNLSGTPKEAMRNRTITDVFEPGSTVKPMVVMTALQRGVVRENSVLNTIPYRINGHEIKDVARYSELTLTGVLQKSSNVGVSKLALAMPSSALVDTYSRFGLGKATNLGLVGERSGLYPQKQRWSDIERATFSFGYGLMVTPLQLARVYATIGSYGIYRPLSITKVDPPVPGERVFPESIVRTVVHMMESVALPGGGGVKAAIKGYRIAIKTGTAKKVGPDGRYINKYIAYTAGVAPASQPRFALVVVINDPQAGKYYGGAVSAPVFGAIMGGVLRTMNIEPDALTTGDKNEFV	–	binds	–	binds weakly	–	–
FtsW (untagged) (protein, UniProt P0ABG4 1-414) MRLSLPRLKMPRLPGFSILVWISTALKGWVMGSREKDTDSLIMYDRTLLWLTFGLAAIGFIMVTSASMPIGQRLTNDPFFFAKRDGVYLILAFILAIITLRLPMEFWQRYSATMLLGSIILLMIVLVVGSSVKGASRWIDLGLLRIQPAELTKLSLFCYIANYLVRKGDEVRNNLRGFLKPMGVILVLAVLLLAQPDLGTVVVLFVTTLAMLFLAGAKLWQFIAIIGMGISAVVLLILAEPYRIRRVTAFWNPWEDPFGSGYQLTQSLMAFGRGELWGQGLGNSVQKLEYLPEAHTDFIFAIIGEELGYVGVVLALLMVFFVAFRAMSIGRKALEIDHRFSGFLACSIGIWFSFQALVNVGAAAGMLPTKGLTLPLISYGGSSLLIMSTAIMMLLRIDYETRLEKAQAFVRGSR	–	–	–	binds	–	–

Second part, the binder after the results:

binding (PBP1b (E. coli))	binding (HisFtsW (E. coli))	binding (HisFtsBL (E. coli))	binding [1]	binding (HisFtsQ (E. coli))	binding (His-FtsB (E. coli))	Binder
–	–	–	binds	–	–	StrepFtsW (protein, UniProt P0ABG4 1-414) MRLSLPRLKMPRLPGFSILVWISTALKGWVMGSREKDTDSLIMYDRTLLWLTFGLAAIGFIMVTSASMPIGQRLTNDPFFFAKRDGVYLILAFILAIITLRLPMEFWQRYSATMLLGSIILLMIVLVVGSSVKGASRWIDLGLLRIQPAELTKLSLFCYIANYLVRKGDEVRNNLRGFLKPMGVILVLAVLLLAQPDLGTVVVLFVTTLAMLFLAGAKLWQFIAIIGMGISAVVLLILAEPYRIRRVTAFWNPWEDPFGSGYQLTQSLMAFGRGELWGQGLGNSVQKLEYLPEAHTDFIFAIIGEELGYVGVVLALLMVFFVAFRAMSIGRKALEIDHRFSGFLACSIGIWFSFQALVNVGAAAGMLPTKGLTLPLISYGGSSLLIMSTAIMMLLRIDYETRLEKAQAFVRGSR
–	–	–	–	–	binds	FtsL^D93A (protein, UniProt P0AEN4 1-121) MISRVTEALSKVKGSMGSHERHALPGVIGDDLLRFGKLPLCLFICIILTAVTVVTTAHHTRLLTAQREQLVLERDALDIEWRNLILEENALGAHSRVERIATEKLQMQHVDPSQENIVVQK
